{
  "source": "paper PMC4336329",
  "about": "(PLoS ONE, 2015)",
  "note": "Among all 310,000 compounds or so, about 14,000 (4.5%) showed an effect of 50% or more. Effects have a minus sign here. The list shows a part of the results.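 Note: peak tail current of the secondary pulse compared with the same well before compound.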",
  "data": [
    {"biological_target": "human ether-à-go-go-related gene (hERG) potassium channel (human, UniProt Q12809)", "sequence (Q12809 whole entry, looked up)": "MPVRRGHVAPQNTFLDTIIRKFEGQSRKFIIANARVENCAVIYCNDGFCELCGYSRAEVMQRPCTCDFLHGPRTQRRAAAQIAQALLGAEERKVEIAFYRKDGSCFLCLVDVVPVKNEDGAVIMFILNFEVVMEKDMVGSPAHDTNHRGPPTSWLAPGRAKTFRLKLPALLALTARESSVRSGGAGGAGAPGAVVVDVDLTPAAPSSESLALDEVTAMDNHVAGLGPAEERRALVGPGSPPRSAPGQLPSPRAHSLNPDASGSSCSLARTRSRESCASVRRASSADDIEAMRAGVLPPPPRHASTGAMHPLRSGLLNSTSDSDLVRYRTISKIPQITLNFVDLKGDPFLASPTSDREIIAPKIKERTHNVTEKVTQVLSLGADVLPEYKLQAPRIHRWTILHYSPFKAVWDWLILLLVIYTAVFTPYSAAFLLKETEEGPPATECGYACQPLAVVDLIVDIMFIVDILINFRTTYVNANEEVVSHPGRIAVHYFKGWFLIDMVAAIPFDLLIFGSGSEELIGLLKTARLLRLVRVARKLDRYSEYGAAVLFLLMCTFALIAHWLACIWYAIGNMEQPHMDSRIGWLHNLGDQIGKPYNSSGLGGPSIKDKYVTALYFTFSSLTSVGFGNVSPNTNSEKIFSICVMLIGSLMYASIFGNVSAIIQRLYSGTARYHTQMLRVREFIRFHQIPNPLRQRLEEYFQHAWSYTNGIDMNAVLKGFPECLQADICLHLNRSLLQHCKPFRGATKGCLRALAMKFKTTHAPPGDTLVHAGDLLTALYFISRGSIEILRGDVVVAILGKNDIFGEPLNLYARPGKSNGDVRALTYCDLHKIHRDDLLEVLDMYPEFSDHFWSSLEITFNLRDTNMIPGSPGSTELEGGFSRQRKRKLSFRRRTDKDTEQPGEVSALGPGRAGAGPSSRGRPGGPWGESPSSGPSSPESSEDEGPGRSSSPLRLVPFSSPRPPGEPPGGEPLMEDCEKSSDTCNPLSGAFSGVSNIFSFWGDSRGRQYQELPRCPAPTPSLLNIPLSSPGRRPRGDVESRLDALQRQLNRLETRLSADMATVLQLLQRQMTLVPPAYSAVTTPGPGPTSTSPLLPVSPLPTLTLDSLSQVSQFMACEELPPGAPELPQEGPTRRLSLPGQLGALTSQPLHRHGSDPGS", "assay": "primary screen, population patch clamp on CHO cells stably expressing hERG", "units": {"hERG current change (%, negative = inhibition) at 10uM": "%"}, "values": [
      {"smiles": "S=c1[nH]nc(-c2ccc3c(c2)OCO3)n1-c1ccccc1", "hERG current change (%, negative = inhibition) at 10uM": 24.7},
      {"smiles": "Cc1cccc(-c2nnc(-c3cccc(NC(=O)Cc4cccs4)c3)o2)c1", "hERG current change (%, negative = inhibition) at 10uM": 10.4},
      {"smiles": "CCC(C(=O)OCC(=O)Nc1ccc(C)c(S(=O)(=O)N2CCOCC2)c1)c1ccccc1", "note": "(centres unmarked)", "hERG current change (%, negative = inhibition) at 10uM": -32.6},
      {"smiles": "CN(C)S(=O)(=O)c1ccc2oc(SCC(=O)Nc3ccccc3F)nc2c1", "hERG current change (%, negative = inhibition) at 10uM": 14.7},
      {"smiles": "CC(=O)Nc1ccc(OCC(O)Cn2nc(C)c(C(C)=O)c2C)cc1", "note": "(centres unmarked)", "hERG current change (%, negative = inhibition) at 10uM": -4.23},
      {"smiles": "CC(=O)C1=C(C)Nc2ncnn2C1c1ccccc1OCc1ccccc1", "note": "(centres unmarked)", "hERG current change (%, negative = inhibition) at 10uM": -7.4},
      {"smiles": "Cl.Nc1ccc2nc(CN3CCOCC3)[nH]c2c1", "hERG current change (%, negative = inhibition) at 10uM": 10.6},
      {"smiles": "Oc1c(Cl)cc(Cl)cc1C=Nc1ccccc1N1CCCC1", "hERG current change (%, negative = inhibition) at 10uM": -4.38},
      {"smiles": "N#Cc1sc2nc(N3CCCCC3)c3c(c2c1N)CCCC3", "hERG current change (%, negative = inhibition) at 10uM": -3.56},
      {"smiles": "CCOc1ccccc1NC(=O)CN(c1ccc(OC)cc1)S(=O)(=O)c1c(C)[nH]c(=O)[nH]c1=O", "hERG current change (%, negative = inhibition) at 10uM": 14.1},
      {"smiles": "Cc1cccc(NC(=O)CSc2nc(N)c(NC(=O)c3cccs3)c(=O)[nH]2)c1", "hERG current change (%, negative = inhibition) at 10uM": 13.4},
      {"smiles": "COc1ccccc1C(=O)NNC(=O)C(=O)NC(C)(C)C", "hERG current change (%, negative = inhibition) at 10uM": 25},
      {"smiles": "Cc1ccc(NC(=O)Nc2nnc(Cc3ccc(F)cc3)s2)cc1", "hERG current change (%, negative = inhibition) at 10uM": 14},
      {"smiles": "CS(=O)(=O)N1CCN(Cc2ccccc2C(F)(F)F)CC1", "hERG current change (%, negative = inhibition) at 10uM": 4.37},
      {"smiles": "COc1cc(C)c(S(=O)(=O)NC2CC(C)(C)NC(C)(C)C2)cc1C", "hERG current change (%, negative = inhibition) at 10uM": 4.58},
      {"smiles": "Cc1ccnc(NS(=O)(=O)c2ccc(NC(=O)Cc3ccc(F)cc3)cc2)n1", "hERG current change (%, negative = inhibition) at 10uM": 14.2},
      {"smiles": "COCCCNC(=O)/C=C/c1cccc(Cl)c1", "hERG current change (%, negative = inhibition) at 10uM": -2.88},
      {"smiles": "O=C(CSCc1ccc([N+](=O)[O-])cc1)NCCSCc1ccccc1", "hERG current change (%, negative = inhibition) at 10uM": -70.1},
      {"smiles": "Cc1cc(C)c(OCCCCN(C)C)c(Br)c1.O=C(O)C(=O)O", "hERG current change (%, negative = inhibition) at 10uM": -41.5},
      {"smiles": "O=C(C1=C[C@@H](c2ccc(C(F)(F)F)cc2)C[C@@H](OCc2ccc(CO)cc2)O1)N1CCOCC1", "hERG current change (%, negative = inhibition) at 10uM": -14.6},
      {"smiles": "CC(=O)Nc1ccc(C(=O)N/C(=C/c2ccccc2)C(=O)NCc2ccco2)cc1", "hERG current change (%, negative = inhibition) at 10uM": -10},
      {"smiles": "CCN(CC)Cc1c(C(=O)N/N=C/c2ccc(OCc3ccccc3C)cc2)nnn1-c1nonc1N", "hERG current change (%, negative = inhibition) at 10uM": -41.5},
      {"smiles": "Cc1c(C(=O)N(Cc2ccc(Cl)cc2)C2CCS(=O)(=O)C2)oc2ccccc12", "note": "(centres unmarked)", "hERG current change (%, negative = inhibition) at 10uM": -4.85},
      {"smiles": "CC(=O)Nc1cccc(C(=O)N/N=C/c2cccc(C)n2)c1", "hERG current change (%, negative = inhibition) at 10uM": 19.9},
      {"smiles": "COc1ccc(-n2cnnc2SCC(=O)Nc2nc(C)c(Cl)cc2Cl)cc1", "hERG current change (%, negative = inhibition) at 10uM": -33.7},
      {"smiles": "COCc1c(C(=O)N/N=C\\c2ccccn2)nnn1-c1nonc1N", "hERG current change (%, negative = inhibition) at 10uM": 7.18},
      {"smiles": "CCOC(=O)N1CCc2c(sc3c2c(=O)n(Cc2ccccc2)c(=O)n3Cc2cccc(C)c2)C1", "hERG current change (%, negative = inhibition) at 10uM": -4.2},
      {"smiles": "O=C(c1ccccc1F)N1CCC(N2CCCCCC2)CC1", "hERG current change (%, negative = inhibition) at 10uM": -10.3},
      {"smiles": "O=c1c(F)cn(C2CCCO2)c(=O)n1Cc1c(Cl)cccc1Cl", "note": "(centres unmarked)", "hERG current change (%, negative = inhibition) at 10uM": -10.8},
      {"smiles": "CCN(CC)C(=O)OCc1c(-c2cccc(OC)c2)ncc2ccccc12", "hERG current change (%, negative = inhibition) at 10uM": -22.1},
      {"smiles": "COc1ccc(C(=O)NCC(c2cccnc2)N2CCN(c3ccc(F)cc3)CC2)cc1OC", "note": "(centres unmarked)", "hERG current change (%, negative = inhibition) at 10uM": -46.1},
      {"smiles": "O=C(CSc1n[nH]c(=O)n1C1CC1)c1ccc(F)cc1", "hERG current change (%, negative = inhibition) at 10uM": 4.93},
      {"smiles": "CCn1ncc(/C=N\\NC(=O)c2csc3ccccc23)c1C", "hERG current change (%, negative = inhibition) at 10uM": 4.65},
      {"smiles": "COc1ccc2c(Cl)c(C(N)=O)sc2c1", "hERG current change (%, negative = inhibition) at 10uM": 1.91},
      {"smiles": "Nc1cccc(-c2nc3ncccc3o2)c1", "hERG current change (%, negative = inhibition) at 10uM": 20.2},
      {"smiles": "Cc1cccc(C(=O)NCC(c2cccs2)N2CCOCC2)c1", "note": "(centres unmarked)", "hERG current change (%, negative = inhibition) at 10uM": 14.6},
      {"smiles": "CCCCn1c(N)c(N(CC(C)C)C(=O)CSc2nnc(C)n2-c2ccc(OC)cc2)c(=O)[nH]c1=O", "hERG current change (%, negative = inhibition) at 10uM": 10.7},
      {"smiles": "NC(=O)c1cc(S(=O)(=O)N2CCCC2)ccc1OCCOc1ccccc1", "hERG current change (%, negative = inhibition) at 10uM": 2.15},
      {"smiles": "CCOc1ccc(-c2c(C(=O)N/N=C/c3cccc(Br)c3)nnn2-c2nonc2N)cc1", "hERG current change (%, negative = inhibition) at 10uM": -3.31},
      {"smiles": "CN(CCOc1ccc(-c2ccn(S(=O)(=O)c3cccc4ccccc34)n2)cc1)c1ccccn1", "hERG current change (%, negative = inhibition) at 10uM": 13.9},
      {"smiles": "Cc1nnc(SCC(=O)N(C)c2ccccc2)n1-n1cccc1", "hERG current change (%, negative = inhibition) at 10uM": 11.1},
      {"smiles": "CC1CCCC(C)N1C(=O)Cn1cnc2cc([N+](=O)[O-])ccc2c1=O", "note": "(centres unmarked)", "hERG current change (%, negative = inhibition) at 10uM": -9.04},
      {"smiles": "Cc1cccc(CCN2CCN=C2Nc2ccccc2)c1", "hERG current change (%, negative = inhibition) at 10uM": -16.8},
      {"smiles": "NC(N)=NS(=O)(=O)c1ccc(NC(=S)NC(=O)c2ccncc2)cc1", "hERG current change (%, negative = inhibition) at 10uM": 2.9},
      {"smiles": "O=C(NC1CCCC1)C(c1ccccn1)N(Cc1ccc(F)cc1)C(=O)c1csnn1", "note": "(centres unmarked)", "hERG current change (%, negative = inhibition) at 10uM": -13.9},
      {"smiles": "O=C(CCC(=O)N1CCN(S(=O)(=O)c2ccc(Cl)cc2)CC1)NCc1ccccc1", "hERG current change (%, negative = inhibition) at 10uM": -14.8},
      {"smiles": "CC1(C)CC(=O)C2=C(C1)N(c1ccc(F)cc1)C(=O)C2(NC(=O)c1ccccc1)C(F)(F)F", "note": "(centres unmarked)", "hERG current change (%, negative = inhibition) at 10uM": 13.4},
      {"smiles": "Cc1ccc(OCc2nnc(SCC(=O)O)n2-c2ccccc2)cc1", "hERG current change (%, negative = inhibition) at 10uM": 16.3},
      {"smiles": "N#CCc1nc(C(c2ccccc2)c2ccccc2)no1", "hERG current change (%, negative = inhibition) at 10uM": 4.55},
      {"smiles": "O=c1c2ccccc2c(C=NCCO)c(O)n1-c1ccccc1", "hERG current change (%, negative = inhibition) at 10uM": 7.97},
      {"smiles": "Cn1nnnc1Sc1ncnc2scc(-c3ccccc3Br)c12", "hERG current change (%, negative = inhibition) at 10uM": -4.66},
      {"smiles": "COc1cc(C(=S)N2CCCCC2)ccc1O", "hERG current change (%, negative = inhibition) at 10uM": 19.4},
      {"smiles": "CC(=O)c1cccc(NC(=O)CCCOc2ccc(C)cc2)c1", "hERG current change (%, negative = inhibition) at 10uM": -11.3},
      {"smiles": "CCN(CC)CCCNC(=O)CCn1nc(-c2ccccc2)ccc1=O", "hERG current change (%, negative = inhibition) at 10uM": -56.8},
      {"smiles": "Cc1nc2n(n1)C(O)c1cc([N+](=O)[O-])ccc1S2", "note": "(centres unmarked)", "hERG current change (%, negative = inhibition) at 10uM": 21.3},
      {"smiles": "COc1ccc(-c2nc3ccccc3c(=O)n2CCCn2ccnc2)cc1", "hERG current change (%, negative = inhibition) at 10uM": -49}
    ]}
  ]
}
